What follows are compounds tested on MLKL phosphorylation, HT29-L23 human colorectal adenocarcinoma cells (assay: cells). Settings: read-out: pMLKL HCS Cell Assay (IC50, uM).
`Nc1ncnn2c(-c3ccc(Cl)c(C(=O)N[C@@H]4CN(C(=O)C5CCC(F)(F)C5)C[C@@H]4F)c3)cc(C(F)(F)F)c12` (stereo partly drawn) [Example 930, 5-[4-amino-5-(trifluoromethyl)pyrrolo[2,1-f][1,2,4]triazin-7-yl]-2-chloro-N-[(3R,4S)-1-(3,3-difluorocyclopentanecarbonyl)-4-fluoropyrrolidin-3-yl]benzamide] gave an IC50 of 0.0032 µM. `Nc1ncnn2c(-c3ccc(Cl)c(C(=O)N[C@@H]4CN(C(=O)CC(O)(C(F)(F)F)C(F)(F)F)C[C@@H]4F)c3)cc(C(F)(F)F)c12` [Example 931, 5-[4-amino-5-(trifluoromethyl)pyrrolo[2,1-f][1,2,4]triazin-7-yl]-2-chloro-N-[(3R,4S)-4-fluoro-1-[4,4,4-trifluoro-3-hydroxy-3-(trifluoromethyl)butanoyl]pyrrolidin-3-yl]benzamide] showed an IC50 of 0.0027 µM. For `Nc1ncnn2c(-c3ccc(Cl)c(C(=O)N[C@@H]4CN(C(=O)c5ccccc5F)C[C@@H]4F)c3)cc(C(F)(F)F)c12` [Example 932, 5-[4-amino-5-(trifluoromethyl)pyrrolo[2,1-f][1,2,4]triazin-7-yl]-2-chloro-N-[(3R,4S)-4-fluoro-1-(2-fluorobenzoyl)pyrrolidin-3-yl]benzamide], the IC50 was 0.007 µM. For `CC(C)(F)C(=O)N1C[C@H](F)[C@H](NC(=O)c2cc(-c3cc(C(F)(F)F)c4c(N)ncnn34)ccc2Cl)C1` [Example 933, 5-[4-amino-5-(trifluoromethyl)pyrrolo[2,1-f][1,2,4]triazin-7-yl]-2-chloro-N-[(3R,4S)-4-fluoro-1-(2-fluoro-2-methylpropanoyl)pyrrolidin-3-yl]benzamide], the IC50 was 0.011 µM. For `Nc1ncnn2c(-c3ccc(Cl)c(C(=O)N[C@@H]4CN(C(=O)C5(F)CC5)C[C@@H]4F)c3)cc(C(F)(F)F)c12` [Example 934, 5-[4-amino-5-(trifluoromethyl)pyrrolo[2,1-f][1,2,4]triazin-7-yl]-2-chloro-N-[(3R,4S)-4-fluoro-1-(1-fluorocyclopropanecarbonyl)pyrrolidin-3-yl]benzamide], the IC50 was 0.0081 µM. Compound `C[C@@](O)(C(=O)N1C[C@H](F)[C@H](NC(=O)c2cc(-c3cc(C(F)(F)F)c4c(N)ncnn34)ccc2Cl)C1)C(F)(F)F` [Example 935, 5-[4-amino-5-(trifluoromethyl)pyrrolo[2,1-f][1,2,4]triazin-7-yl]-2-chloro-N-[(3R,4S)-4-fluoro-1-[(2R)-3,3,3-trifluoro-2-hydroxy-2-methylpropanoyl]pyrrolidin-3-yl]benzamide] has an IC50 of 0.002 µM. For `Nc1ncnn2c(-c3ccc(Cl)c(C(=O)N[C@@H]4CN(C(=O)C5CC5(F)F)C[C@@H]4F)c3)cc(C(F)(F)F)c12` (stereo partly drawn) [Example 937, 5-[4-amino-5-(trifluoromethyl)pyrrolo[2,1-f][1,2,4]triazin-7-yl]-2-chloro-N-[(3R,4S)-1-(2,2-difluorocyclopropanecarbonyl)-4-fluoropyrrolidin-3-yl]benzamide], the IC50 was 0.0045 µM. Compound `Nc1ncnn2c(-c3ccc(Cl)c(C(=O)N[C@@H]4CN(C(=O)C5CCC(F)(F)CC5)C[C@@H]4F)c3)cc(C(F)(F)F)c12` [Example 938, 5-[4-amino-5-(trifluoromethyl)pyrrolo[2,1-f][1,2,4]triazin-7-yl]-2-chloro-N-[(3R,4S)-1-(4,4-difluorocyclohexanecarbonyl)-4-fluoropyrrolidin-3-yl]benzamide] has an IC50 of 0.015 µM. With `CC(C)CC(=O)N1C[C@H](F)[C@H](NC(=O)c2cc(-c3cc(C(F)(F)F)c4c(N)ncnn34)ccc2Cl)C1` [Example 939, 5-[4-amino-5-(trifluoromethyl)pyrrolo[2,1-f][1,2,4]triazin-7-yl]-2-chloro-N-[(3R,4S)-4-fluoro-1-(3-methylbutanoyl)pyrrolidin-3-yl]benzamide] the IC50 was 0.0034 µM. With `CC(C(=O)N1C[C@H](F)[C@H](NC(=O)c2cc(-c3cc(C(F)(F)F)c4c(N)ncnn34)ccc2Cl)C1)C(F)(F)F` (stereo partly drawn) [Example 940, 5-[4-amino-5-(trifluoromethyl)pyrrolo[2,1-f][1,2,4]triazin-7-yl]-2-chloro-N-[(3R,4S)-4-fluoro-1-(3,3,3-trifluoro-2-methylpropanoyl)pyrrolidin-3-yl]benzamide] the IC50 was 0.003 µM. `CC(CC(=O)N1C[C@H](F)[C@H](NC(=O)c2cc(-c3cc(C(F)(F)F)c4c(N)ncnn34)ccc2Cl)C1)C(F)(F)F` (stereo partly drawn) [Example 941, 5-[4-amino-5-(trifluoromethyl)pyrrolo[2,1-f][1,2,4]triazin-7-yl]-2-chloro-N-[(3R,4S)-4-fluoro-1-(4,4,4-trifluoro-3-methylbutanoyl)pyrrolidin-3-yl]benzamide] gave an IC50 of 0.0025 µM. For `Nc1ncnn2c(-c3ccc(Cl)c(C(=O)N[C@@H]4CN(C(=O)C5CC(F)(F)C5)C[C@@H]4F)c3)cc(C(F)(F)F)c12` [Example 942, 5-[4-amino-5-(trifluoromethyl)pyrrolo[2,1-f][1,2,4]triazin-7-yl]-2-chloro-N-[(3R,4S)-1-(3,3-difluorocyclobutanecarbonyl)-4-fluoropyrrolidin-3-yl]benzamide], the IC50 was 0.005 µM. `Nc1ncnn2c(-c3ccc(Cl)c(C(=O)N[C@@H]4CN(C(=O)c5cc(C(F)(F)F)ccn5)C[C@@H]4F)c3)cc(C(F)(F)F)c12` [Example 943, 5-[4-amino-5-(trifluoromethyl)pyrrolo[2,1-f][1,2,4]triazin-7-yl]-2-chloro-N-[(3R,4S)-4-fluoro-1-[4-(trifluoromethyl)pyridine-2-carbonyl]pyrrolidin-3-yl]benzamide] was tested, and the IC50 was 0.326 µM. With `Nc1ncnn2c(-c3ccc(Cl)c(C(=O)N[C@@H]4CN(C(=O)c5ccc(F)cc5F)C[C@@H]4F)c3)cc(C(F)(F)F)c12` [Example 944, 5-[4-amino-5-(trifluoromethyl)pyrrolo[2,1-f][1,2,4]triazin-7-yl]-2-chloro-N-[(3R,4S)-1-(2,4-difluorobenzoyl)-4-fluoropyrrolidin-3-yl]benzamide] the IC50 was 0.022 µM. `Nc1ncnn2c(-c3ccc(Cl)c(C(=O)N[C@@H]4CN(C(=O)c5ncc(F)cc5F)C[C@@H]4F)c3)cc(C(F)(F)F)c12` [Example 945, 5-[4-amino-5-(trifluoromethyl)pyrrolo[2,1-f][1,2,4]triazin-7-yl]-2-chloro-N-[(3R,4S)-1-(3,5-difluoropyridine-2-carbonyl)-4-fluoropyrrolidin-3-yl]benzamide] showed an IC50 of 0.065 µM. Compound `Nc1ncnn2c(-c3ccc(Cl)c(C(=O)N[C@@H]4CN(C(=O)c5cscn5)C[C@@H]4F)c3)cc(C(F)(F)F)c12` [Example 946, 5-[4-amino-5-(trifluoromethyl)pyrrolo[2,1-f][1,2,4]triazin-7-yl]-2-chloro-N-[(3R,4S)-4-fluoro-1-(1,3-thiazole-4-carbonyl)pyrrolidin-3-yl]benzamide] has an IC50 of 0.065 µM. With `Nc1ncnn2c(-c3ccc(Cl)c(C(=O)N[C@@H]4CN(C(=O)c5ccc(Cl)cc5)C[C@@H]4F)c3)cc(C(F)(F)F)c12` [Example 947, 5-[4-amino-5-(trifluoromethyl)pyrrolo[2,1-f][1,2,4]triazin-7-yl]-2-chloro-N-[(3R,4S)-1-(4-chlorobenzoyl)-4-fluoropyrrolidin-3-yl]benzamide] the IC50 was 0.071 µM. `Nc1ncnn2c(-c3ccc(Cl)c(C(=O)N[C@@H]4CN(C(=O)c5ccc(F)c(F)c5)C[C@@H]4F)c3)cc(C(F)(F)F)c12` [Example 948, 5-[4-amino-5-(trifluoromethyl)pyrrolo[2,1-f][1,2,4]triazin-7-yl]-2-chloro-N-[(3R,4S)-1-(3,4-difluorobenzoyl)-4-fluoropyrrolidin-3-yl]benzamide] was tested, and the IC50 was 0.022 µM. With `Nc1ncnn2c(-c3ccc(Cl)c(C(=O)N[C@@H]4CN(C(=O)c5ncccc5F)C[C@@H]4F)c3)cc(C(F)(F)F)c12` [Example 949, 5-[4-amino-5-(trifluoromethyl)pyrrolo[2,1-f][1,2,4]triazin-7-yl]-2-chloro-N-[(3R,4S)-4-fluoro-1-(3-fluoropyridine-2-carbonyl)pyrrolidin-3-yl]benzamide] the IC50 was 0.063 µM. Compound `Nc1ncnn2c(-c3ccc(Cl)c(C(=O)N[C@@H]4CN(C(=O)c5ccncc5)C[C@@H]4F)c3)cc(C(F)(F)F)c12` [Example 950, 5-[4-amino-5-(trifluoromethyl)pyrrolo[2,1-f][1,2,4]triazin-7-yl]-2-chloro-N-[(3R,4S)-4-fluoro-1-(pyridine-4-carbonyl)pyrrolidin-3-yl]benzamide] has an IC50 of 0.069 µM. Work on `Nc1ncnn2c(-c3ccc(Cl)c(C(=O)N[C@@H]4CN(C(=O)c5cccc(F)c5)C[C@@H]4F)c3)cc(C(F)(F)F)c12` [Example 951, 5-[4-amino-5-(trifluoromethyl)pyrrolo[2,1-f][1,2,4]triazin-7-yl]-2-chloro-N-[(3R,4S)-4-fluoro-1-(3-fluorobenzoyl)pyrrolidin-3-yl]benzamide] yielded an IC50 of 0.015 µM. Compound `Nc1ncnn2c(-c3ccc(Cl)c(C(=O)N[C@@H]4CN(C(=O)c5ccc(F)cc5)C[C@@H]4F)c3)cc(C(F)(F)F)c12` [Example 952, 5-[4-amino-5-(trifluoromethyl)pyrrolo[2,1-f][1,2,4]triazin-7-yl]-2-chloro-N-[(3R,4S)-4-fluoro-1-(4-fluorobenzoyl)pyrrolidin-3-yl]benzamide] has an IC50 of 0.024 µM. `Nc1ncnn2c(-c3ccc(Cl)c(C(=O)N[C@@H]4CN(C(=O)c5cnccc5C(F)(F)F)C[C@@H]4F)c3)cc(C(F)(F)F)c12` [Example 953] gave an IC50 of 0.182 µM. Compound `Nc1ncnn2c(-c3ccc(Cl)c(C(=O)N[C@@H]4CN(C(=O)c5ccccc5)C[C@@H]4F)c3)cc(C(F)(F)F)c12` [Example 954, 5-[4-amino-5-(trifluoromethyl)pyrrolo[2,1-f][1,2,4]triazin-7-yl]-N-[(3R,4S)-1-benzoyl-4-fluoropyrrolidin-3-yl]-2-chlorobenzamide] has an IC50 of 0.02 µM. `Nc1ncnn2c(-c3ccc(Cl)c(C(=O)N[C@@H]4CN(C(=O)c5c(F)cncc5F)C[C@@H]4F)c3)cc(C(F)(F)F)c12` [Example 955, 5-[4-amino-5-(trifluoromethyl)pyrrolo[2,1-f][1,2,4]triazin-7-yl]-2-chloro-N-[(3R,4S)-1-(3,5-difluoropyridine-4-carbonyl)-4-fluoropyrrolidin-3-yl]benzamide] gave an IC50 of 0.022 µM. For `Nc1ncnn2c(-c3ccc(Cl)c(C(=O)N[C@@H]4CN(C(=O)c5ccccn5)C[C@@H]4F)c3)cc(C(F)(F)F)c12` [Example 956, 5-[4-amino-5-(trifluoromethyl)pyrrolo[2,1-f][1,2,4]triazin-7-yl]-2-chloro-N-[(3R,4S)-4-fluoro-1-(pyridine-2-carbonyl)pyrrolidin-3-yl]benzamide], the IC50 was 0.185 µM.

— patent publication US11618753B2 (priority 2018, dated 2023)
